Laboratory results reported in PubChem BioAssay AID504845 (National Center for Advancing Translational Sciences (NCATS), 2011).
The campaign covered roughly 390,000 compounds. About 150 (0.038%) were called active. This list was built around the results that the source calls inconclusive (neither active nor inactive); the mix of calls is not that of the screen. Calls come from the whole dose curve; as a rule, active = well fitted inhibition curve with a large enough effect; inconclusive = small, poorly fitted or top-dose-only effect; inactive = no such curve, though single readings can be large or run the other way. Where the call is inconclusive, the potency comes from a doubtful curve fit.

Molecular target: Regulator of G-protein signaling 4 (Homo sapiens) (UniProt P49798)
Sequence of UniProt P49798 (P49798 whole entry, looked up): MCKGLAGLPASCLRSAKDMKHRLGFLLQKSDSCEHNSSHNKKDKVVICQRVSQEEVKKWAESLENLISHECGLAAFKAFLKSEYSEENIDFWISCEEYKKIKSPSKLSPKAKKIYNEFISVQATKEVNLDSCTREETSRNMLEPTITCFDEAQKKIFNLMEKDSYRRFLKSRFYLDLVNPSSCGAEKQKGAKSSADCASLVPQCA
Assay: Inhibitors of Regulator of G Protein Signaling (RGS) 4: qHTS; note: nearly all actives have a fitted effect of over 75% in size
Settings: Transcreener GDP fluorescence polarization, RGS4-accelerated GTP hydrolysis; series mostly up to 114 µM; activity change, negative = inhibition: at the top concentration
Method in brief: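 MLSMR compounds (23 nl, pin-transferred) preincubated 10 min at room temperature with a 500nM (2x) first reagent, then RGS4 at 900nM (2x) plus Transcreener GDP mix added; fluorescence polarization (620/688 nm) read before and after 90 min at 30 °C.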
% is set by controls: 0 for no effect and ±100 for the full control effect; potency is the fitted concentration of half-maximal effect; tags give direction and shape of the fitted curve.

SMILES	activity change, negative = inhibition	Potency
O=C(Cn1cnc2ccccc2c1=O)Nc1ccc2c(c1)OCCO2	inactive: 2.41%	
CN(C)c1ccc(C(=S)N2CCN(c3ccc([N+](=O)[O-])cc3)CC2)cc1		inconclusive: 79.4 µM [inhibitor, partial curve, poor fit]
C(=N\Nc1nc2ccccc2s1)/c1ccccn1	inactive: -11.9%	
CC1CCN=C(N)S1 (centres undefined)		inconclusive: 0.376 µM [inhibitor, full curve, poor fit]
COCCN(CC(=O)NC1CCCCC1)C(=O)/C=C/C(=O)c1ccc(OC)cc1O		inconclusive: 22.4 µM [inhibitor, full curve, poor fit]
COc1ccc(S(=O)(=O)c2c(N)n(Cc3ccco3)c3nc4ccccc4nc23)cc1		inconclusive: 20 µM [inhibitor, full curve, poor fit]
Cc1ccc(C(=O)CSc2nsc(C)c2C#N)cc1		inconclusive: 44.7 µM [inhibitor, partial curve, poor fit]
COc1cccc(-c2nnc(SCC(=O)N3CCCCC3)o2)c1		inconclusive: 100 µM [inhibitor, partial curve, poor fit]
COc1ccccc1/C=C/C(=O)OC(C)CN1CCOCC1 (centres undefined)	inactive: -24.1%	
N#C/C(=C\c1ccc(O)c(O)c1)C(=O)NCCCc1ccccc1		inconclusive: 13.4 µM [inhibitor, partial curve, poor fit]
CCN1C(=O)C(C(=O)c2ccccc2)SC1=S (centres undefined)		inconclusive: 79.4 µM [inhibitor, partial curve, poor fit]
CC1=C(C(=O)OCC2CCCO2)C(c2ccncc2)C2=C(CC(C)(C)CC2=O)N1 (centres undefined)		inconclusive: 70.8 µM [inhibitor, single point]
COC(=O)CCS(=O)(=O)c1nc(-c2ccccc2)cc(C(F)(F)F)n1		inconclusive: 39.8 µM [inhibitor, partial curve, poor fit]
O=C(Nc1nc(-c2ccccn2)cs1)c1ccccc1-n1cnnn1	inactive: -36.5% [at 11.4 µM]	
CSC(=S)NN=C(C)c1cccc(C)n1		inconclusive: 50.1 µM [inhibitor, partial curve, poor fit]
O=C(NCc1cnc2ccccn12)C1CCC(=O)N(Cc2ccccc2F)C1 (centres undefined)	inactive: -50.6%	
COc1ccccc1N=C1NC(=O)/C(=C/c2ccc(N(C)C)cc2)S1	inactive: -22.8%	
Cc1ccc(Cn2c(SCC(C)C)nc3c2c(=O)[nH]c(=O)n3C)cc1		inconclusive: 79.4 µM [inhibitor, partial curve, poor fit]
COc1ccc(-c2cc(C(=O)NC(Cc3cc4ccccc4[nH]3)C(=O)O)c(C)o2)cc1OC (centres undefined)		inconclusive: 50.1 µM [inhibitor, partial curve, poor fit]
